According to publication PMC6919601, “Identification of Plasmodium dipeptidyl aminopeptidase allosteric inhibitors by high throughput screening” (PLoS ONE, 2019):
Screen size: about 110,000 compounds; about 230 (0.21%) showed an effect of 50% or more. Some of the results follow.

molecular target: DPAP1 (Plasmodium falciparum, UniProt Q8IIJ9); assay: primary screen, percent inhibition; read by cleavage of a fluorogenic dipeptide substrate; higher = more effect of the substance; set-up: species or system P. falciparum D10 trophozoite lysates; single well
Sequence (Q8IIJ9 whole entry, looked up): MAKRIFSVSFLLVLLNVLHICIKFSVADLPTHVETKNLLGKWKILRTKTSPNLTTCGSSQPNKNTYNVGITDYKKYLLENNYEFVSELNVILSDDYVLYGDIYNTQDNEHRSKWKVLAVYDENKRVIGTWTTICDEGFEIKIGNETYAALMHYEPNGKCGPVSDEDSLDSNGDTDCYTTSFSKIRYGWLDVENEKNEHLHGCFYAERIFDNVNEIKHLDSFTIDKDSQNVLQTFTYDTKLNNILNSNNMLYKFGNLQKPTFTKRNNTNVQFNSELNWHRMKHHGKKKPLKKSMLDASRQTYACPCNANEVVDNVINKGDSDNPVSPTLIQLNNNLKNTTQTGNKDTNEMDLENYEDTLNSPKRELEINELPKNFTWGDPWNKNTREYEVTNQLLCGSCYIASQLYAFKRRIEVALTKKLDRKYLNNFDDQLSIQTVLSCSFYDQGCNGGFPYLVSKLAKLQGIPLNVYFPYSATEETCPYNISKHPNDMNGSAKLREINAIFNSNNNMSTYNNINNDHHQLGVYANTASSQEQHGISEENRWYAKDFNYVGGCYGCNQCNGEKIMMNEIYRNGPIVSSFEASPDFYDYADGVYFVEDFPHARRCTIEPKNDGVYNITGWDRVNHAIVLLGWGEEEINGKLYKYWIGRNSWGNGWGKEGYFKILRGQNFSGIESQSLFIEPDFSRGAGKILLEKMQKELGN
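Also: 30 min substrate incubation versus DMSO and 10 µM JCP410 controls.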

SMILES | % Inhibition @ 10 uM [%]
CCOc1c(Cl)cc(/C=c2\sc3nc4ccccc4n3c2=O)cc1OC | 3.04
COc1ccc(CNC(=O)c2nc(SCc3ccc(F)cc3)ncc2Cl)cc1 | 2.2
O=C(NCC12CC3CC(CC(C3)C1)C2)c1nc(-c2ccc3c(c2)OCO3)no1 | 5.49
O=C(N/C(=C\c1ccccc1F)C(=O)N1CC2CC(C1)c1cccc(=O)n1C2)c1ccccc1 (centres unmarked) | 9.1
Cc1nc2ncnn2c(C)c1CCC(=O)NCCCOC(C)C | 1.26
CCOC(=O)N1CCC(NC2CCCC(C)C2C)CC1 (centres unmarked) | -1.5
O=C1CSc2nnc(Cn3nnc4ccccc43)n2N1 | -2.21
CCc1nn(CC(=O)NC(C)C)c(=O)c2cc3c(OC)cccc3n12 | -1.7
COc1cccc(/C=C2\CN(C)C/C(=C\c3cccc(OC)c3OC)C2=O)c1OC | 8.24
COC(=O)c1nc(N)n(-c2nc(-c3ccc(OC)cc3)cc(C(F)(F)F)n2)n1 | -1.21
CC(=O)N1C(=O)CC(C)N(C(C)=O)c2ccccc21 (centres unmarked) | -3.77
COc1ccc(CCNC(=O)CCCN2C(=O)C(c3ccccc3)Oc3cccnc32)cc1OC (centres unmarked) | -5.07
CC1=C(C(=O)OCCC(C)C)C(c2ccc(Cl)cc2)NC(=O)N1 (centres unmarked) | -3.6
Cc1ccsc1C=C1C(=O)c2ccccc2C1=O | -1.26
Cc1ccc(OCCCc2c(C)n[nH]c2C)c(C)c1 | 6.49
O=C(NCc1cccnc1)c1ccc2c(Cl)c3c(nc2c1)CCCC3 | -2.14
N#Cc1c(C(F)(F)F)cc(-c2cccs2)nc1SCC(=O)N1CCOCC1 | 72.6
CCN1CCN(Cc2cccc([N+](=O)[O-])c2)CC1 | -0.127
CCO/C(O)=C1/C(C)=NC2=C(C(=O)CCC2)C1c1ccccc1 (centres unmarked) | 3.04
Cc1[nH]c(-c2ccc(F)cc2)cc1C(=O)NCc1ccccn1 | -4.05
NC(=O)c1c(NC(=O)C2CCCN(C(=O)c3ccco3)C2)sc2c1CCCC2 (centres unmarked) | 2.29
CCOc1ccc(CC(=O)Nc2ccccc2)cc1OCC | -0.088

SMILES | % Inhibition @ 10 uM [%]
CCCN1CCC(N2CCN(CCOCCO)CC2)CC1 | 2.99
CC1(c2ccc(Cl)cc2)NC(=O)NC1=O (centres unmarked) | 1.27
C/C(=N\CCCN1CCOCC1)c1c(C(F)(F)F)nn(-c2nc3ccccc3s2)c1O | 6.12
COc1cccc(NC(=O)C23CCC(C)(c4nc5ccccc5nc42)C3(C)C)c1 (centres unmarked) | -2.99
O=C1/C(=C/c2ccco2)N=C(N2CCCCC2)N1c1ccccc1 | -4.21
Cc1cc2nc(C)n(Cc3ccccc3)c2cc1C | 6.89
COC(=O)c1cc2oc(C)cc2n1Cc1cccc(F)c1 | -1.85
Cc1cc2cc(CNC(=O)C3CCCC3)ccc2[nH]1 | 1.55
CC(Oc1ccccc1)C(=O)Nc1ccc2c(c1)OCO2 (centres unmarked) | -2.65
Cc1ccc2nc(-c3ccccn3)cc(C(=O)O)c2c1 | -5.6
Cc1ccc(OCCCCCc2c(C)n[nH]c2C)cc1C | -0.351
CC(C)CNC(=O)C(=O)NCc1ccc(Cl)cc1Cl | -3.5
NC(=O)/C(=C/c1ccc(Br)cc1)NC(=O)c1ccco1 | 2.13
O=C(c1ccncc1)N1CCN(Cc2ccccc2)CC1 | 1.38
Cc1ccc(-c2c(S(=O)(=O)c3ccccc3)cnc3cc(C)nn23)cc1 | 0.873
Clc1ccccc1Cn1cccc1C1=NCCO1 | -1.58
COc1ccc(-c2cc(C(=O)O)c3cc(C(C)C)ccc3n2)cc1 | 6.13
Cc1cc(-n2nc(C)c(/C=N/CC(=O)O)c2O)ccc1Br | 3.27
Cc1ccc(NC=C2C(=O)NC(=O)NC2=O)cc1CN1C(=O)c2ccccc2C1=O | -4.41
O=C(NC1CCCCC1)c1ccc(Br)c(S(=O)(=O)N2CCCCCC2)c1 | -0.519
COc1cc(OC)cc(C(=O)Nc2ccc(N3CCN(C(=O)C(C)C)CC3)c(Cl)c2)c1 | 3.49
O=C(C1CCN(S(=O)(=O)c2ccccc2)CC1)N1CCN(Cc2ccccc2)CC1 | -3.97

SMILES | % Inhibition @ 10 uM [%]
COCCNC(=S)N(CCc1c(C)[nH]c2ccc(F)cc12)Cc1cccs1 | 1.5
CCOc1ccc2c(C)cc(=O)oc2c1OCC | -2.08
Cc1cc(C)cc(OCC(=O)N2CCN(c3ccc(Cl)cc3)CC2)c1 | 2.76
CCN(CC)Cc1c(O)ccc2occ(C(=O)c3ccc(OC)cc3)c12 | -6.48
NC(=O)C1CCN(CC(c2ccccc2)c2ccccc2)CC1 | -4.75
Cc1cc(NC(=O)CSc2nc(O)c(C#N)c(-c3ccccc3)n2)no1 | -3.63
CC1=C(C(=O)NCc2ccc(OC(C)C)cc2)C2(CCCCC2)OC1=O | 0.233
CN(CCCNC(=O)c1ccc2nc(N3CCCCC3)sc2c1)C1CCCCC1 | -6.01
OCC/N=C/c1c(-c2ccccc2)nn(-c2nc3ccccc3s2)c1O | -1.22
CC(C)(C)c1ccc(S(=O)(=O)N2CCCC(C(=O)O)C2)cc1 (centres unmarked) | -3.08
COc1ccc(S(=O)(=O)N2CCN(c3cccc(Cl)c3)CC2)cc1 | 0.526
CCCC1CCC(C2=N/C(=C\c3cc(OC)ccc3OC)C(=O)O2)CC1 (centres unmarked) | -2.41
O=C(O)CCC(=O)Nc1sc2c(c1C(=O)Nc1ccc(Cl)cc1)CCCCC2 | 23.7
O[C@]12CCCC[C@@H]1[C@@H](c1ccncc1)NCC2 | -0.0372
CCOC(=O)c1cc2c(=O)n3ccccc3nc2n(CC(C)C)/c1=N/C(=O)c1ccc2ccccc2c1 | 2.84
S=C(NCc1ccco1)Nc1ccccc1 | -5.48
Cc1ccc(CNC(=O)CNS(=O)(=O)c2ccc3nc(C)sc3c2)cc1 | -6.09
CCOC(=O)C1=C(CSc2ccc(Cl)cc2)NC(=O)NC1c1cc(C)ccc1C (centres unmarked) | 1.51
Cn1c(=O)c2c(ncn2Cc2cccc(C(F)(F)F)c2)n(C)c1=O | 9.83
O=C(Nc1cccnc1)c1ccc(CNS(=O)(=O)c2cccc(C(F)(F)F)c2)cc1 | 3.72
O=C(Nc1cccc(Cl)c1)N1CCN(c2ccc([N+](=O)[O-])cc2)CC1 | -4.94
